Out of some 150,000 compounds screened, about 540 (0.36%) showed an effect of 50% or more. The list shows a part of the results.
test system: Plasmodium falciparum; assay: Primary screen in NF54 nanoGlo assay, in single point, at 2uM, 72h; a lower Z score goes with more inhibition; type: functional, Erythrocyte; details: timepoint 72 hour

**Q.** `CCOc1ccccc1NC(=O)N(CC(=O)N(CCc1ccccc1)Cc1ccco1)C(C)C` was tested. Which “% Inhibition” value did it give?
**A.** -10%

**Q.** And the Z score?
**A.** 1.42

**Q.** With `Nc1cccc(C(=O)N[C@H]2CCOC3(CCOCC3)C2)n1` as the molecule, how does the “% Inhibition” value read?
**A.** 14%

**Q.** What about the Z score of the same molecule?
**A.** -1.94

**Q.** `O=C(c1ccccn1)N1CC[C@H](Nc2ncc(C(F)(F)F)cc2Cl)[C@@H](O)C1` was tested. Which “% Inhibition” value did it give?
**A.** -9%

**Q.** What about the Z score of the same molecule?
**A.** 1.14

**Q.** Which results are given for `Cc1cc(C(=O)N2CCC2)c(C)n1-c1ccc2c(c1)OCCO2`?
**A.** % Inhibition: -9%; Z score: 1.75

**Q.** `COC[C@@H]1[C@H](C(=O)Nc2ccc3c(c2)N(C)CCC3)CCC(=O)N1C` was tested. Which “% Inhibition” value did it give?
**A.** -13%

**Q.** And the Z score?
**A.** 1.52

**Q.** For `C[C@@H](CNS(=O)(=O)C1CC1)N(C)S(=O)(=O)C1CC1`, which “% Inhibition” value is on record?
**A.** -8%

**Q.** And the Z score?
**A.** 1.28

**Q.** How did the “% Inhibition” value turn out when `Cc1[nH]c(=O)[nH]c1C(=O)NC1(c2c(Cl)cccc2Cl)CC1` was run?
**A.** -11%

**Q.** And the Z score?
**A.** 1.43

**Q.** What does the source list for `CC(C)(CS(C)(=O)=O)C(=O)N1C[C@H](c2ccccc2)C2(CCC2)C1`?
**A.** % Inhibition: -5%; Z score: 0.63

**Q.** With `CCOC(=O)c1c(N)c2cnccc2n1C` as the molecule, how does the “% Inhibition” value read?
**A.** -4%

**Q.** What about the Z score of the same molecule?
**A.** 0.51

**Q.** What does the source list for `CC(C)Oc1c(Cl)cccc1NCC(=O)NCC(F)(F)F`?
**A.** % Inhibition: -5%; Z score: 0.68

**Q.** With `CCN(CC)c1cc(-c2cnn(C)c2)nc(N)n1` as the molecule, how does the “% Inhibition” value read?
**A.** -1%

**Q.** What about the Z score of the same molecule?
**A.** 0.25

**Q.** `Nc1nccc(-c2cnc(-c3ccccn3)s2)n1` was tested. Which “% Inhibition” value did it give?
**A.** -20%

**Q.** And the Z score?
**A.** 2.33

**Q.** Which “% Inhibition” value does the source give for `O=C(c1ccccc1)N1C[C@H]2CC[C@@H](C1)N(Cc1cc3ccccc3o1)C2` here?
**A.** -8%

**Q.** And the Z score?
**A.** 1.51

**Q.** How did the “% Inhibition” value turn out when `CN(CCCc1cc(-c2ccccc2)n[nH]1)C(=O)[C@@H]1CCCCN1` was run?
**A.** -7%

**Q.** What about the Z score of the same molecule?
**A.** 0.89

**Q.** How did the “% Inhibition” value turn out when `CC(C)(C)c1noc(C2CN(c3ccc(Br)cc3C#N)C2)n1` was run?
**A.** -12%

**Q.** And the Z score?
**A.** 2.3

**Q.** Which results are given for `O=C(c1ccc(Cl)s1)N1CC(OCC(F)(F)F)C1`?
**A.** % Inhibition: -11%; Z score: 1.78

**Q.** With `Cc1[nH]c2ccccc2c1C(=O)N1CCO[C@H](c2cc(F)c(Cl)cc2Cl)C1` as the molecule, how does the “% Inhibition” value read?
**A.** -11%

**Q.** What about the Z score of the same molecule?
**A.** 1.43

**Q.** `CN(CCc1ccccn1)C1CCN(Cc2ccccc2)CC1` was tested. Which “% Inhibition” value did it give?
**A.** -4%

**Q.** What about the Z score of the same molecule?
**A.** 0.73

**Q.** For `COCCC(=O)N(CCN(C)C)Cc1cccc(Cl)c1`, which “% Inhibition” value is on record?
**A.** -8%

**Q.** And the Z score?
**A.** 1.04

**Q.** Which results are given for `O=C(Nc1cccc2cccnc12)c1ccc(OC[C@H]2CCCO2)nc1`?
**A.** % Inhibition: -14%; Z score: 2.58

**Q.** How did the “% Inhibition” value turn out when `c1cnc2nc(NCCCn3cccn3)c(NCCCn3cccn3)nc2c1` was run?
**A.** 1%

**Q.** And the Z score?
**A.** -0.14

**Q.** How did the “% Inhibition” value turn out when `O=C(Cc1cccc(F)c1)N[C@@H]1COCC[C@@H]1OCc1ccccc1` was run?
**A.** -11%

**Q.** And the Z score?
**A.** 1

**Q.** With `COCCn1ccnc1C1CCN(C(=O)c2nn(C)cc2Cl)CC1` as the molecule, how does the “% Inhibition” value read?
**A.** -11%

**Q.** And the Z score?
**A.** 1.84

**Q.** What does the source list for `CCCN1C(=O)CC[C@@H]2CN(C(=O)c3ccc(COC)o3)CC[C@@H]21`?
**A.** % Inhibition: -23%; Z score: 1.98
